PubChem BioAssay AID624171 (National Center for Advancing Translational Sciences (NCATS), 2012)
About 1,200 (0.29%) of roughly 410,000 compounds were called active. Inconclusive means that the source gave no clear call. Such entries were picked first, then a sample of the others. Calls come from the whole dose curve; as a rule, active = well fitted activation curve with a large enough effect; inconclusive = small, poorly fitted or top-dose-only effect; inactive = flat fitted curve, though single readings scatter. Where the call is inconclusive, the potency comes from a doubtful curve fit.

Assay: qHTS of Nrf2 Activators; note: nearly all actives have a fitted effect of over 65% in size; for activation: % of control where 0% means no effect
Conditions: AREc32 ARE-luciferase reporter (MCF7-derived line), luminescence, 24 h; activation: at 46.1 µM (top of the series)
Method in brief: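 ARE activation measured as luciferase luminescence (Steady-Glo, 30 min RT) in AREc32_Fluc cells after 24 hr compound exposure at 37 deg C, 5% CO2; cells seeded overnight at 1000/well in OPTI-MEM, 5% FBS.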
Potency is the fitted concentration of half-maximal effect; tags give direction and shape of the fitted curve.

Potency, inconclusive:
Cc1nn(-c2ccccc2)c(Cl)c1/C=C/C(=O)c1ccc(O)cc1 11.2 µM [activator, partial curve], c1ccc2c(c1)[nH]c1c3ccccc3sc21 12.6 µM [activator, partial curve, poor fit], O=C(CCCN1C(=O)/C(=C/c2ccco2)SC1=S)Nc1ccccc1C(=O)O 12.6 µM [activator, partial curve, poor fit], Cc1ccc(/C=C/C(=O)NCCc2cccc(Cl)c2)o1 31.6 µM [activator, single point], O=C(Nc1ccccc1NC(=O)c1c(F)c(F)c(F)c(F)c1F)c1c(F)c(F)c(F)c(F)c1F 20 µM [activator, single point], CCOc1ccccc1N1CSC2=C(C#N)C(c3c(OC)ccc4ccccc34)CC(=O)N2C1 (configuration not stated) 31.6 µM [activator, single point], O=C(CSc1cccc[n+]1[O-])Nc1cc(Cl)ccc1[N+](=O)[O-] 15.8 µM [activator, single point], CC(C)C(Cl)=NOC(=O)Nc1ccc(F)cc1 35.5 µM [activator, single point], Cc1nc2ccn(Cc3ccco3)c(=O)c2cc1C(=O)NCc1ccc(Cl)cc1 14.1 µM [activator, single point], COc1ccc(CCNC(=O)c2ccc(-n3c(C)cc4c3CCC(C)C4)cc2)cc1OC (configuration not stated) 25.1 µM [activator, single point], O=C(CCS(=O)(=O)Cc1ccccc1)Nc1nnc(C(F)(F)F)s1 25.1 µM [activator, single point], C=CCS(=O)(=O)c1nc2ccccc2s1 5.01 µM [activator, single point], O=C1C=CC(=O)N1c1ccccc1N1C(=O)C=CC1=O 5.62 µM [activator, single point], COc1ccc2oc(-c3ccco3)cc(=O)c2c1 15.8 µM [activator, partial curve, poor fit], N#Cc1ccsc1NC(=O)c1ccccn1 35.5 µM [activator, partial curve, poor fit], COc1ccc(-c2noc(-c3ccco3)n2)cc1OC 15.8 µM [activator, single point], Cc1cc2oc(C(=O)N(Cc3ccco3)C3CCS(=O)(=O)C3)cc(=O)c2cc1Cl (configuration not stated) 35.5 µM [activator, single point], CCOC(=O)C(C(=O)OCC)C1OC(=O)c2cc3c(cc21)C(=O)OC3C(C(=O)OCC)C(=O)OCC (configuration not stated) 22.4 µM [activator, single point], CCC(C)S(=O)(=O)c1oc(-c2cccs2)nc1S(=O)(=O)c1ccccc1 (configuration not stated) 4.47 µM [activator, single point], COc1cccc(-c2csc3ncnc(Sc4nnnn4C)c23)c1 0.562 µM [activator, full curve, poor fit], CCOC(=O)c1c(-c2ccco2)csc1NC(=O)COC(=O)c1cnccn1 11.2 µM [activator, partial curve, poor fit], CC(Oc1cccc(Cl)c1)C(=O)Nc1nc(-c2ccccn2)cs1 (configuration not stated) 22.4 µM [activator, single point], Cc1ccc(NC2=C(Cl)C(=O)OC2OC(=O)c2ccc(C)cc2)cc1 (configuration not stated) 22.4 µM [activator, single point], O=C1C(O)=CC(=C(c2ccccc2)c2ccccc2)c2ccccc21 35.5 µM [activator, single point], c1ccc(-c2noc(-c3cccc4ccccc34)n2)nc1 35.5 µM [activator, single point], CCOC(=O)/C=c1\s/c(=C(\C#N)C(N)=O)n(-c2ccccc2)c1=O 14.1 µM [activator, single point], NC1=NC(=O)/C(=C\c2ccco2)S1 20 µM [activator, partial curve, poor fit], S=C(Nc1ccccn1)c1ccccn1 8.91 µM [activator, partial curve], CCc1cc2c(SCC(=O)N3CC(=O)Nc4ccccc43)ncnc2s1 7.94 µM [activator, partial curve], CN1/C(=C\C(=O)c2cccc([N+](=O)[O-])c2)Sc2ccccc21 15.8 µM [activator, partial curve, poor fit], CC(=O)Cn1ncc(Br)c(Br)c1=O 3.16 µM [activator, partial curve, poor fit], COc1cc(/C=C/c2ccc3cccc(O)c3n2)cc(OC)c1OC 7.08 µM [activator, partial curve, poor fit], O=c1cc(Cl)[nH]c(=O)n1Cc1ccc(F)cc1 20 µM [activator, single point], COC(=O)C1CSC2c3ccccc3C(=O)N12 (configuration not stated) 35.5 µM [activator, single point], CSc1nc(=S)cc(C)[nH]1 17.8 µM [activator, single point], Cc1nnc(-c2cccc(C(F)(F)F)c2)nc1N1CCOCC1 22.4 µM [activator, single point], Fc1cccc2sc(Nc3nc4cc5c(cc4s3)OCO5)nc12 8.91 µM [activator, partial curve, poor fit], CC12CCC=CC1=C(C=O)C1C2CCC2(C)C(O)CCC12 (configuration not stated) 11.2 µM [activator, partial curve], Cc1cc(C)c(S(=O)(=O)N2CCCCC2CCNC(=O)C(=O)NCc2ccco2)c(C)c1 (configuration not stated) 15.8 µM [activator, partial curve, poor fit], COc1ccc(-c2ccc(SCC(=O)NCc3ccco3)nn2)cc1OC 12.6 µM [activator, single point], O=c1oc2ccc(Cl)cc2nc1/C=C(\O)c1cccs1 3.16 µM [activator, full curve, poor fit], Cn1c(NC(=O)c2cccnc2)nc2ccccc21 11.2 µM [activator, partial curve, poor fit], O=C(/C=C/Nc1cccc(F)c1)c1ccco1 2.24 µM [activator, full curve, poor fit], O=[N+]([O-])c1cccc(-c2cn(-c3ccccc3)c(=S)[nH]2)c1 2.24 µM [activator, full curve]

Potency, active:
Cc1ccc(S(=O)(=O)CCC(=O)Nc2nc(-c3ccccn3)cs2)cc1 14.1 µM, COc1ccc(Cl)cc1C(=O)O/N=C(\N)c1ccncc1 3.98 µM, O=C(CCNc1cc(Cl)cc(Cl)c1)c1cccs1 6.31 µM, CCOC(=O)c1cnc(-c2ccccc2)nc1Oc1ccccc1 12.6 µM, Cc1ccc2cc3c(NC(=O)c4ccco4)nn(C)c3nc2c1 3.16 µM, CSC1=N/C(=C\c2ccccc2)C(=O)N1C 11.2 µM, S=c1[nH]nc(-c2ccco2)n1/N=C/c1ccccc1 10 µM, CN(C)CCCN=c1cc(-c2ccccc2)oc2ccc(Cl)cc12 14.1 µM, COc1ccc(/C=C2\CCC/C(=C\C=N\N(C)C)C2=O)cc1 14.1 µM

activation, inactive:
CCc1ccc(C2CC(=O)Nc3c2c(=O)n(C)c2ncnn32)cc1 (configuration not stated) -1.24%, COc1cc(NC(=O)C2C3C=CC(C3)C2C(=O)O)ccc1NC(=O)c1ccccc1 (configuration not stated) 2.12%, O=C(O)/C=C/C(=O)Nc1ccccc1C(=O)Nc1ccccc1 12.9%, Cc1ccc(-c2cn3nc(N4CCCC(C(=O)NCc5ccccc5F)C4)sc3n2)cc1 (configuration not stated) 1.02%, CC(C)C[C@@H](CNCC(=O)[C@H](C)NC(=O)c1[nH]cnc1C(=O)N[C@@H](C)CN)NC(=O)c1nc[nH]c1C(=O)N[C@@H](CC(=O)O)C(=O)O -1.03%, CN1C(=O)c2cccc3c(S(=O)(=O)Nc4cccc(C(=O)O)c4)ccc1c23 0.0609%, CCn1nnnc1SCC(=O)Nc1nc2ccc(OC)cc2s1 0.872%, COc1ccc(-n2c(C)c(C)c3c(N)ncnc32)cc1 -0.186%, COc1ccccc1NC(=O)c1cc2ccc(O)cc2o/c1=N\O 3.6%, CCOC(=O)c1c(C(F)(F)F)nc2ncccn12 -0.569%, COc1ccc(CNc2nc3ccccc3n2C)c(O)c1 -0.0759%, CCSC1=N/C(=C\C=C2/Oc3ccccc3N2CC)C(=O)S1 1.65%, CCOc1cc(C(=O)N(C)Cc2cc3cc(OC)ccc3[nH]c2=O)cc(OCC)c1OCC -0.579%, O=C(N/N=C/c1ccc(N2CCOCC2)o1)c1ccccc1[N+](=O)[O-] -0.784%, CCOc1ccc(CNC(=O)Cn2c(=O)c3cccn3c3cccnc32)cc1 4.6%, COc1cccc(C(=O)Nc2cccc(-c3nnc(-c4ccco4)o3)c2)c1 0.264%, CC1CCC(NC(=O)c2ccc(CSc3nc4ccncc4n3Cc3ccc(F)cc3)cc2)CC1 (configuration not stated) 0.561%, Cc1cccc(N(C(=O)CNC(=O)c2cccs2)C(C(=O)NC2CCCC2)c2ccncc2)c1 (configuration not stated) -0.243%, Cc1nc2ccc(S(=O)(=O)NC(C(=O)N3CCN(c4cccc(Cl)c4)CC3)C(C)C)cc2s1 (configuration not stated) -1.45%
